{"source": "the supplement of paper PMC7826260", "note": "This is one part of the list. Viral Rep nickase domains cut single-stranded DNA in vitro (1 h at 37 °C, 3 µM enzyme); the outer parts of the 90-letter strands are left off. Values are log2 of uncut reads against the no-enzyme pool; strong cutting gives strongly negative numbers. There is no active / inactive call. Reads are scaled to the total; uncut strands gain when others are lost, and binding without cutting may add a little.", "data": [{"system": "T1, Rep nickase domain of Muscovy duck circovirus", "T1 sequence (residues 1-111, tag not shown)": "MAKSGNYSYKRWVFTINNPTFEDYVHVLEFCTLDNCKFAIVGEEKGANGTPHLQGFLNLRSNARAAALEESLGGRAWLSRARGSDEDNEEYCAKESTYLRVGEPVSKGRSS", "assay": "uncleaved DNA left, log2 of reads against the no-enzyme library (log2 ratio); higher = less cleavage (more negative = more Rep cleavage of the k-mer); sequences stand for … in CTCGTCCG…ACCGGAGA", "procedure": "(§1)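 A pool of 90-nt single-stranded DNAs with seven random bases just before the constant AC of the nick site (name = the seven bases) was cut by 3 µM recombinant His6-SUMO-tagged Rep nickase domain (300 nM DNA, 50 mM HEPES pH 8.0, 50 mM NaCl, 1 mM MnCl2, 1 h, 37 °C, three replicates). Uncut DNA was amplified and sequenced.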", "values": [{"sequence": "CGTTCGC", "uncleaved DNA left (log2)": -0.0679}, {"sequence": "AGAACCC", "uncleaved DNA left (log2)": 0.168}, {"sequence": "CAGTGGC", "uncleaved DNA left (log2)": -0.0398}, {"sequence": "TTCCCCA", "uncleaved DNA left (log2)": 0.0233}, {"sequence": "GATCGTG", "uncleaved DNA left (log2)": 0.112}, {"sequence": "GTCCGGA", "uncleaved DNA left (log2)": 0.0248}, {"sequence": "GTTAAAC", "uncleaved DNA left (log2)": 0.0392}, {"sequence": "ATTCCTT", "uncleaved DNA left (log2)": -0.575}, {"sequence": "CCGTGAA", "uncleaved DNA left (log2)": 0.0426}, {"sequence": "CGCTGTT", "uncleaved DNA left (log2)": -1.94}, {"sequence": "TTGTCGC", "uncleaved DNA left (log2)": -0.0691}, {"sequence": "GTACGTC", "uncleaved DNA left (log2)": 0.0699}, {"sequence": "CCGATCC", "uncleaved DNA left (log2)": -0.00638}, {"sequence": "AGGGAGT", "uncleaved DNA left (log2)": -0.00337}, {"sequence": "CACCTGC", "uncleaved DNA left (log2)": -0.217}, {"sequence": "CGTCCTC", "uncleaved DNA left (log2)": 0.00521}, {"sequence": "TCCATAT", "uncleaved DNA left (log2)": 0.159}, {"sequence": "ATATCTG", "uncleaved DNA left (log2)": 0.0651}, {"sequence": "TTTCGAT", "uncleaved DNA left (log2)": 0.0772}, {"sequence": "TCGGTGC", "uncleaved DNA left (log2)": 0.0693}, {"sequence": "CCTAACA", "uncleaved DNA left (log2)": 0.000581}, {"sequence": "TTCAAAC", "uncleaved DNA left (log2)": 0.0371}, {"sequence": "TCGGAAC", "uncleaved DNA left (log2)": -0.00497}, {"sequence": "AGGGGTG", "uncleaved DNA left (log2)": 0.02}, {"sequence": "GACGCTT", "uncleaved DNA left (log2)": 0.131}, {"sequence": "ACTGGTC", "uncleaved DNA left (log2)": -0.036}, {"sequence": "CAATTTA", "uncleaved DNA left (log2)": -0.229}, {"sequence": "TCCTTGG", "uncleaved DNA left (log2)": 0.177}, {"sequence": "AAATGGT", "uncleaved DNA left (log2)": -0.274}, {"sequence": "TTGATCT", "uncleaved DNA left (log2)": -0.0509}, {"sequence": "AGCCATT", "uncleaved DNA left (log2)": -0.0198}, {"sequence": "GCACGCG", "uncleaved DNA left (log2)": -0.0257}, {"sequence": "CCAGTCA", "uncleaved DNA left (log2)": 0.0292}, {"sequence": "AGGGCCC", "uncleaved DNA left (log2)": -0.0373}, {"sequence": "TCCACAA", "uncleaved DNA left (log2)": -0.0323}, {"sequence": "TGCGAAC", "uncleaved DNA left (log2)": 0.0561}, {"sequence": "GTTCGAA", "uncleaved DNA left (log2)": 0.00631}, {"sequence": "ACGGCTC", "uncleaved DNA left (log2)": -0.0836}, {"sequence": "ATATAGG", "uncleaved DNA left (log2)": 0.0737}, {"sequence": "TGTTCGA", "uncleaved DNA left (log2)": 0.000967}]}, {"system": "T2, Rep nickase domain of banana bunchy top virus", "T2 sequence (residues 1-94, tag not shown)": "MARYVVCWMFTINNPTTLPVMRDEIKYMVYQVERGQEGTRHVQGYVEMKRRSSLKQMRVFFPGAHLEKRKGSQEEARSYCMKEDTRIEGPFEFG", "assay": "uncleaved DNA left, log2 of reads against the no-enzyme library (log2 ratio); higher = less cleavage (more negative = more Rep cleavage of the k-mer); sequences stand for … in CTCGTCCG…ACCGGAGA", "procedure": "as §1", "values": [{"sequence": "CGTTCGC", "uncleaved DNA left (log2)": 0.0165}, {"sequence": "AGAACCC", "uncleaved DNA left (log2)": 0.118}, {"sequence": "CAGTGGC", "uncleaved DNA left (log2)": -0.116}, {"sequence": "TTCCCCA", "uncleaved DNA left (log2)": -0.039}, {"sequence": "GATCGTG", "uncleaved DNA left (log2)": 0.0196}, {"sequence": "GTCCGGA", "uncleaved DNA left (log2)": 0.0924}, {"sequence": "GTTAAAC", "uncleaved DNA left (log2)": 0.1}, {"sequence": "ATTCCTT", "uncleaved DNA left (log2)": -0.407}, {"sequence": "CCGTGAA", "uncleaved DNA left (log2)": 0.122}, {"sequence": "CGCTGTT", "uncleaved DNA left (log2)": -0.548}, {"sequence": "TTGTCGC", "uncleaved DNA left (log2)": -0.155}, {"sequence": "GTACGTC", "uncleaved DNA left (log2)": 0.152}, {"sequence": "CCGATCC", "uncleaved DNA left (log2)": 0.00906}, {"sequence": "AGGGAGT", "uncleaved DNA left (log2)": 0.0614}, {"sequence": "CACCTGC", "uncleaved DNA left (log2)": -0.0226}, {"sequence": "CGTCCTC", "uncleaved DNA left (log2)": 0.0533}, {"sequence": "TCCATAT", "uncleaved DNA left (log2)": -0.0625}, {"sequence": "ATATCTG", "uncleaved DNA left (log2)": 0.145}, {"sequence": "TTTCGAT", "uncleaved DNA left (log2)": -0.0206}, {"sequence": "TCGGTGC", "uncleaved DNA left (log2)": -0.0411}, {"sequence": "CCTAACA", "uncleaved DNA left (log2)": -0.1}, {"sequence": "TTCAAAC", "uncleaved DNA left (log2)": 0.00841}, {"sequence": "TCGGAAC", "uncleaved DNA left (log2)": -0.0437}, {"sequence": "AGGGGTG", "uncleaved DNA left (log2)": -0.116}, {"sequence": "GACGCTT", "uncleaved DNA left (log2)": -0.0423}, {"sequence": "ACTGGTC", "uncleaved DNA left (log2)": -0.128}, {"sequence": "CAATTTA", "uncleaved DNA left (log2)": 0.114}, {"sequence": "TCCTTGG", "uncleaved DNA left (log2)": -0.0105}, {"sequence": "AAATGGT", "uncleaved DNA left (log2)": -0.0215}, {"sequence": "TTGATCT", "uncleaved DNA left (log2)": -0.0944}, {"sequence": "AGCCATT", "uncleaved DNA left (log2)": -0.049}, {"sequence": "GCACGCG", "uncleaved DNA left (log2)": 0.0547}, {"sequence": "CCAGTCA", "uncleaved DNA left (log2)": 0.0138}, {"sequence": "AGGGCCC", "uncleaved DNA left (log2)": 0.0106}, {"sequence": "TCCACAA", "uncleaved DNA left (log2)": 0.034}, {"sequence": "TGCGAAC", "uncleaved DNA left (log2)": -0.0387}, {"sequence": "GTTCGAA", "uncleaved DNA left (log2)": 0.0336}, {"sequence": "ACGGCTC", "uncleaved DNA left (log2)": -0.0461}, {"sequence": "ATATAGG", "uncleaved DNA left (log2)": -0.0121}, {"sequence": "TGTTCGA", "uncleaved DNA left (log2)": -0.0717}]}, {"system": "T3, Rep nickase domain of cabbage leaf curl virus", "T3 sequence (residues 1-116, tag not shown)": "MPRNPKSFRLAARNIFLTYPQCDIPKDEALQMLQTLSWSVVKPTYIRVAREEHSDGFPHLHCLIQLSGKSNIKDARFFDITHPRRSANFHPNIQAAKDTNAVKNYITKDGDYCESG", "assay": "uncleaved DNA left, log2 of reads against the no-enzyme library (log2 ratio); higher = less cleavage (more negative = more Rep cleavage of the k-mer); sequences stand for … in CTCGTCCG…ACCGGAGA", "procedure": "as §1", "values": [{"sequence": "CGTTCGC", "uncleaved DNA left (log2)": -0.339}, {"sequence": "AGAACCC", "uncleaved DNA left (log2)": 0.705}, {"sequence": "CAGTGGC", "uncleaved DNA left (log2)": -0.671}, {"sequence": "TTCCCCA", "uncleaved DNA left (log2)": 0.221}, {"sequence": "GATCGTG", "uncleaved DNA left (log2)": -0.382}, {"sequence": "GTCCGGA", "uncleaved DNA left (log2)": 0.403}, {"sequence": "GTTAAAC", "uncleaved DNA left (log2)": 0.336}, {"sequence": "ATTCCTT", "uncleaved DNA left (log2)": -0.0392}, {"sequence": "CCGTGAA", "uncleaved DNA left (log2)": 0.268}, {"sequence": "CGCTGTT", "uncleaved DNA left (log2)": -0.4}, {"sequence": "TTGTCGC", "uncleaved DNA left (log2)": -0.941}, {"sequence": "GTACGTC", "uncleaved DNA left (log2)": 0.382}, {"sequence": "CCGATCC", "uncleaved DNA left (log2)": 0.17}, {"sequence": "AGGGAGT", "uncleaved DNA left (log2)": 0.272}, {"sequence": "CACCTGC", "uncleaved DNA left (log2)": -0.543}, {"sequence": "CGTCCTC", "uncleaved DNA left (log2)": 0.17}, {"sequence": "TCCATAT", "uncleaved DNA left (log2)": 0.127}, {"sequence": "ATATCTG", "uncleaved DNA left (log2)": -0.0279}, {"sequence": "TTTCGAT", "uncleaved DNA left (log2)": 0.19}, {"sequence": "TCGGTGC", "uncleaved DNA left (log2)": -0.312}, {"sequence": "CCTAACA", "uncleaved DNA left (log2)": -0.427}, {"sequence": "TTCAAAC", "uncleaved DNA left (log2)": 0.306}, {"sequence": "TCGGAAC", "uncleaved DNA left (log2)": 0.232}, {"sequence": "AGGGGTG", "uncleaved DNA left (log2)": -0.0917}, {"sequence": "GACGCTT", "uncleaved DNA left (log2)": 0.383}, {"sequence": "ACTGGTC", "uncleaved DNA left (log2)": -0.0596}, {"sequence": "CAATTTA", "uncleaved DNA left (log2)": -1.69}, {"sequence": "TCCTTGG", "uncleaved DNA left (log2)": 0.0953}, {"sequence": "AAATGGT", "uncleaved DNA left (log2)": -3.63}, {"sequence": "TTGATCT", "uncleaved DNA left (log2)": -0.00188}, {"sequence": "AGCCATT", "uncleaved DNA left (log2)": 0.413}, {"sequence": "GCACGCG", "uncleaved DNA left (log2)": -0.563}, {"sequence": "CCAGTCA", "uncleaved DNA left (log2)": 0.0362}, {"sequence": "AGGGCCC", "uncleaved DNA left (log2)": 0.367}, {"sequence": "TCCACAA", "uncleaved DNA left (log2)": 0.168}, {"sequence": "TGCGAAC", "uncleaved DNA left (log2)": 0.00073}, {"sequence": "GTTCGAA", "uncleaved DNA left (log2)": 0.16}, {"sequence": "ACGGCTC", "uncleaved DNA left (log2)": -0.294}, {"sequence": "ATATAGG", "uncleaved DNA left (log2)": 0.126}, {"sequence": "TGTTCGA", "uncleaved DNA left (log2)": -0.212}]}]}
